Values marked as one replicate rest on one cluster of the flow cell; about a third of the high ones do not repeat.
The sequences below were run on ATP (assay: switch fluorescence ratio, 500 uM ATP over buffer (Cy3 cluster intensity, sum of 5 cycles each) (fold (ratio)); higher = stronger signal-on switching upon ATP binding; sequences stand for … in TCGTCGGCAGCGTCAGATGTGTATAAGAGACAGTTTTTTTTTTTTTTTTTTTTTTTTT…TC). Details: aptamer strand: ATP DNA aptamer (quencher-CACCTGGGGGAGTATTGCGGAGGAAGG + anchor), 100 nM annealed; ATP concentration: 500 uM; one replicate.
In short: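 Switching-strand clusters labelled with Cy3 on a modified Illumina MiSeq flow-cell were annealed to 100 nM quencher-labelled ATP aptamer, imaged in selection buffer, and re-imaged after 15 min with 500 uM ATP at 22 °C. This was done over five cycles with NaOH stripping and re-annealing in between. The fluorescence ratio is summed target-cycle over summed buffer-cycle Cy3 intensity per cluster, averaged per switch-domain sequence, excluding clusters outside 100-1000 RFU.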
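Also: ATP exposure 15 min at 22 °C before imaging.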

Sequence | switch fluorescence ratio
ACGTCTGGTC | 0.98
ACGTGAAGAT | 1.05
ACGTGAGGAC | 1.06
ACGTGAGGGT | 1.06
ACGTGGCTCG | 1.02
ACGTGGTGAG | 1
ACGTGTAAGG | 1.03
ACGTGTACGA | 1.03
ACGTGTCTCA | 0.954
ACGTTACATG | 1.43
ACGTTAGGT | 1.11
ACGTTAGGTA | 1.06
ACGTTATG | 1.15
ACGTTCGTCT | 0.995
ACGTTTTCTG | 0.994
ACTAAAAACT | 0.99
ACTAAAGGGT | 1.05
ACTACAATA | 1.09
ACTACACGTT | 1.38
ACTACGGCTT | 1.06
ACTACGTCG | 1.06
ACTACTGTTA | 1.04
ACTACTTGTC | 1.03
ACTACTTGTG | 1
ACTAGACTTG | 1.01

Sequence | switch fluorescence ratio
ACTAGAGTAT | 1.04
ACTAGATCTT | 0.978
ACTAGATGTA | 0.985
ACTAGCAGAT | 1.05
ACTAGCATGT | 1
ACTAGCCACT | 0.997
ACTAGCCCTA | 0.969
ACTAGCGGCC | 1.04
ACTAGGATGA | 1.01
ACTAGGGGCG | 1.03
ACTAGTCTCA | 1.03
ACTATAGAGT | 1.05
ACTATAGTC | 1.02
ACTATCATCA | 0.993
ACTATCCTGT | 1.03
ACTATCTTCA | 1.02
ACTATCTTGG | 1.02
ACTATGATCT | 0.987
ACTATGCACT | 1.11
ACTATGCTCT | 0.993
ACTATTCTTT | 1.04
ACTCAAAGG | 1.81
ACTCAAAGTG | 1.41
ACTCACACTC | 1.38
ACTCACGATT | 1.41

Sequence | switch fluorescence ratio
ACTCAGCGGC | 1.96
ACTCAGTCAT | 1.18
ACTCATCCTC | 1.13
ACTCCAAATT | 1.24
ACTCCATGTA | 1.07
ACTCCGAGTA | 1.99
ACTCCGGTG | 1.9
ACTCCTTCCT | 3.17
ACTCGATGTC | 0.984
ACTCGCGGTC | 2.2
ACTCGGAATA | 2.39
ACTCGGGGG | 1.07
ACTCGGGTTA | 1.01
ACTCGGTGAC | 1.11
ACTCGTCGCG | 1.06
ACTCGTTTTG | 1.01
ACTCTATTCA | 1.04
ACTCTGAAAT | 3.53
ACTCTGACTA | 1.1
ACTCTTGACA | 1.04
ACTCTTGGCC | 1.03
ACTGAAGGGC | 0.95
ACTGAAGGGT | 0.961
ACTGAATTTC | 0.984
ACTGACTCT | 1.14

Sequence | switch fluorescence ratio
ACTGAGTAC | 1.02
ACTGATGCGG | 1.01
ACTGATTGAC | 1.07
ACTGCAATGT | 1.67
ACTGCCGCGC | 1.23
ACTGCCTCAA | 0.97
ACTGCGAAAT | 2.53
ACTGCGGCCT | 1.05
ACTGCGTATT | 1.01
ACTGCTCATC | 1.04
ACTGGAAGGC | 1.1
ACTGGACCAT | 1.09
ACTGGAGGTC | 0.997
ACTGGATTCG | 0.99
ACTGGGAAAT | 0.995
ACTGGGAGCC | 0.972
ACTGGGCATT | 1.19
ACTGGGCTCT | 0.947
ACTGGGGCGC | 0.972
ACTGGGGCTG | 1
ACTGGTATTT | 1.01
ACTGGTCGTC | 1.05
ACTGGTCGTG | 0.981
ACTGGTTGTG | 1.01
ACTGTACGCC | 1.36

— the supplement of paper PMC10126150
